This is an account of results in PubChem BioAssay AID1745853 (National Center for Advancing Translational Sciences (NCATS), 2022).

Holding throughout (assay): Primary Screen for Target Class Profiling of Small Molecule Inhibitors of Methyltransferases
Test [1] deals with Glycine N-methyltransferase (Homo sapiens) (UniProt Q14749). Conditions: purified enzyme, MTase-Glo SAH luminescence; measured here: GNMT inhibition; at 40 µM; stronger effect = lower value. In short, it runs like this: (§1)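 Each enzyme was assayed with SAM and its substrate. SAH formation detected by MTase-Glo luminescence; single-point 40 uM screen[…].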
Test [2] addresses Guanidinoacetate N-methyltransferase (Homo sapiens) (UniProt Q14353). Conditions: purified enzyme, MTase-Glo SAH luminescence; measured here: GAMT inhibition; at 40 µM; stronger effect = lower value. The gist of the method:
as §1

For test [3], the target named is Histamine N-methyltransferase (Homo sapiens) (UniProt P50135). Conditions: purified enzyme, MTase-Glo SAH luminescence; measured here: HNMT inhibition; at 40 µM; stronger effect = lower value. In short, it runs like this:
as §1

The target of test [4] is Nicotinamide N-methyltransferase (Homo sapiens) (UniProt P40261). Conditions: purified enzyme, MTase-Glo SAH luminescence; measured here: NNMT inhibition; at 40 µM; stronger effect = lower value. In short, it runs like this: as §1
For test [5], the target named is Phenylethanolamine N-methyltransferase (Homo sapiens) (UniProt P11086). Conditions: purified enzyme, MTase-Glo SAH luminescence; measured here: PNMT inhibition; at 40 µM; stronger effect = lower value. The gist of the method: as §1

Molecules are shown by their SMILES. The list shows a part of the results. These are further read-outs of the screen, such as a control signal, another cell line or another target. No call is given for them.
On the % scale 0 is the no-effect control and ±100 the full control effect.

As for `COc1cc(/C=C/C(=O)OCC2OC(OC3(CO)OC(CO)C(O)C3O)C(O)C(O)C2O)ccc1O` (stereo unspecified), the activity change, negative = inhibition in test [1] was 2.59%; in test [2] it was 3.86%; in test [3] it was 9.08%; in test [4], -7.97%; in test [5] it was -0.638%.
Taken in the same sequence, the figures for `COC(=O)c1ncn2c1C(=O)N(C1CC1)C(C)(C(=O)NCCCOC(C)C)C2` (stereo unspecified) were -6.41%, 4.68%, -4.27%, -4.98% and -2.32%.
On the same counts, the results for `C=C1C(=O)O[C@@H]2/C=C(/C)[C@@H](OC(C)=O)C/C=C(\C)C[C@@H](OC(=O)/C(=C/CO)CO)[C@@H]12` are -5.27%, -0.388%, 0.212%, -11.3% and 3.52%.
Regarding `C/C=C(\C)C(=O)OC1C2(O)CC3=C4CC(=O)OC(c5ccoc5)C4(C)CCC3C(C)(C2=O)C(C(OC(C)=O)C(=O)OC)C1(C)C` (stereo unspecified), the activity change, negative = inhibition in test [1] is 3.37%; in test [2] it was 6.23%; in test [3] it was 6.54%; in test [4], -11.2%; in test [5], -3.73%.
Taken in the same sequence, the figures for `Cc1ccc(CNC(=O)C(C)n2ccc3cc(S(=O)(=O)N4CCCCC4)ccc32)cc1` (stereo unspecified) were 0.403%, 6.76%, -3.59%, -9.55% and -0.805%.
Taken in the same sequence, the figures for `COCc1cccc(-c2n[nH]c3c2CC(=O)N(CCc2ccncc2)C3)c1` were -25.6%, -12%, -19.5%, -14.3% and -25.3%.
Taken in the same sequence, the figures for `COc1cccc(Nc2cn(C)c(=O)n3cc(COc4ccccc4)nc23)c1` were -12.6%, -7.76%, -6.16%, -11.8% and -23.1%.
Turning to `CCCCCCCc1ccc(CCc2cccc(O)c2C(=O)O)cc1`, the activity change, negative = inhibition in test [1] is -32.7%; in test [3], -19.6%; in test [4] it was -35.6%; in test [5] it was 11.4%.
As for `Cn1c(=O)c2ccc(C(=O)NC3CCCCC3)cc2n2c(SCC(=O)NC3CCCCC3)nnc12`, the activity change, negative = inhibition in test [1] was -0.864%; in test [2], 5.93%; in test [3], 10%; in test [4], 6.04%; in test [5] it was 8.15%.
Taken in the same sequence, the figures for `CC(C)c1ccc(CN2CC(CNC(=O)C3CCOCC3)C3(C2)CN(c2ccccc2)C3)cc1` (stereo unspecified) were -2.71%, -1.02%, -0.672%, -3.88% and 1.83%.
`COC[C@H]1C[C@@H](NC(=O)c2c(-c3ccccc3)noc2C)[C@H](O)[C@@H]1O`: the activity change, negative = inhibition in test [1] is -2.47%; in test [2], -1.98%; in test [3], -2.89%; in test [4], 3.83%; in test [5], -2.08%.
Taken in the same sequence, the figures for `COc1ccc(NC(=O)N2CCOC(c3ccc(Cl)cc3)C2)c(C)c1` (stereo unspecified) were -3.96%, -8.45%, -2.83%, -9.81% and -5.86%.
As for `Nc1nccc(N2CCC3(CCC(=O)N(CC4CCCO4)C3)CC2)n1` (stereo unspecified), the activity change, negative = inhibition in test [1] was 1.85%; in test [2], 0.177%; in test [3], -42.7%; in test [4], -5.21%; in test [5], 14.3%.
`CC1(C(=O)NC2CCCCC2)Cn2c(cc3ccccc32)C(=O)N1Cc1ccccc1F` (stereo unspecified): the activity change, negative = inhibition in test [1] is -2.45%; in test [2], 0%; in test [3], 5.05%; in test [4], -0.527%; in test [5], -5.68%.
On to `C=CCNC(=O)c1cnn2cc(C)ccc12`, for which the activity change, negative = inhibition in test [1] was -3.57%; in test [2], -0.976%; in test [3] it was -0.522%; in test [4] it was -6.26%; in test [5], -3.82%.
Taken in the same sequence, the figures for `CCN(CC)CC(O)CN1CCn2c3c(c4cc(C)ccc42)CCCC31` (stereo unspecified) were 3.82%, 0%, 2.55%, 9.45% and 2.99%.
On the same counts, the results for `CC(C)CCn1c(=O)c2ccccc2n2c(=O)n(CC(=O)N3CCN(c4ccccc4F)CC3)nc12` are -4.43%, 2.98%, 0.201%, -8.96% and 0.218%.
On the same counts, the results for `C/C(=C\CCC(C)CCO)C(=O)OC[C@H]1O[C@@H](O[C@@H]2OC=C(C(=O)O)[C@H]3CC[C@](C)(O)[C@@H]23)C(O)[C@@H](O)C1O` (stereo partly specified) are -0.025%, 1.27%, 10.1%, -10.9% and 4.36%.
In the case of `Cc1cc(C)c(NS(=O)(=O)c2ccc3[nH]c4c(c3c2)CCCC4)c(C)c1`, the activity change, negative = inhibition in test [1] was 6.51%; in test [2], 0%; in test [3], 4.98%; in test [4], -0.777%; in test [5] it was 1.26%.
`CC(C)(N)C(=O)N[C@H](COCc1ccccc1)C(=O)N1CCC2(CC1)CN(S(C)(=O)=O)c1ccccc12`: the activity change, negative = inhibition in test [1] is 4.78%; in test [2], 7.44%; in test [3], 5.88%; in test [4], -7.61%; in test [5], -0.602%.
On the same counts, the results for `CC(C)CCn1c(=O)c2ccc(C(=O)NC3CCCC3)cc2n2c(=O)n(Cc3ccc(F)cc3)nc12` are -2.19%, 3.53%, -0.035%, 2.39% and -0.059%.
As for `COc1ccc(S(=O)(=O)N2CCC(Cc3nncn3C(C)C)CC2)cc1`, the activity change, negative = inhibition was 5.24% in test [1]; 0.419% in test [2]; 13% in test [3]; 7.55% in test [4]; 9.63% in test [5].
Take `CC(C)Cc1cc(C(=O)N2CCOC(C(F)(F)F)C2)n[nH]1` (stereo unspecified): the activity change, negative = inhibition was 0.187% in test [1]; 2.15% in test [2]; 3.24% in test [3]; -0.917% in test [4]; -0.04% in test [5].
On the same counts, the results for `CCc1nc2cc(N3CCCC(C(=O)O)C3)cnc2nc1CC` (stereo unspecified) are -4.37%, -4.33%, -2.25%, -7.61% and -8.65%.
On the same counts, the results for `CC(O)C/C=C/C=C/C(=O)OC1C=C2COC(=O)C2(O)C2(C)CCCC(C)(C)C12` (stereo unspecified) are 0%, 2.52%, 1.83%, -14.8% and 2.19%.
As to `Cc1ccccc1CNC(=O)c1cc2n(n1)CC(C)(C(=O)NCc1ccccc1)N(C)C2=O` (stereo unspecified), the activity change, negative = inhibition was 1.12% in test [1]; 0% in test [2]; 2.17% in test [3]; 3.12% in test [4]; 0.367% in test [5].
Taken in the same sequence, the figures for `O=C(COC(=O)C(Cc1c[nH]c2ccccc12)NC(=O)c1ccco1)c1ccccc1` (stereo unspecified) were -1.95%, 3.09%, 2.58%, -1.25% and 2.46%.
In the case of `CCc1cc(C(=O)N2CCC3(CCC(=O)N(CCc4cnc[nH]4)C3)CC2)cs1`, the activity change, negative = inhibition in test [1] was -3%; in test [2], -6.83%; in test [3], -2%; in test [4], -7.85%; in test [5] it was -6.61%.
`CCC[C@@H]1C[C@@H](C(=O)N[C@@H]([C@H]2O[C@H](SC)[C@H](O)[C@@H](O)[C@@H]2O)[C@@H](C)O)N(C)C1`: the activity change, negative = inhibition came out at 2.5% in test [1] and 6.31% in test [3].
With `C=C1C(=O)O[C@@H]2[C@H]1CC[C@H](C)C(CCC(=O)O)C2(C)O` (stereo partly specified), the activity change, negative = inhibition in test [1] was 0%; in test [2] it was 2.69%; in test [3] it was 9.67%; in test [4], -6.54%; in test [5] it was 4.82%.
